# Results: the supplement of paper PMC8728848
# The list shows a part of the results.
# B1: ACA (Amaranthus caudatus) (protein)
# chain: MAGLPVIMCLKSNNNQKYLRYQSDNIQQYGLLQFSADKILDPLAQFEVEPSKTYDGLVHIKSRYTNKYLVRWSPNHYWITASANEPDENKSNWACTLFKPLYVEEGNMKKVRLLHVQLGHYTQNYTVGGSFVSYLFAESSQIDTGSKDVFHVIDWKSIFQFPKRYVTFKGNNGKYLGVITINQLPCLQFGYDNLNDPKVAHEMFVTSNGTICIKSTYMNKFWRLSTDDWILVDGNDPRETNEAAALFRSDVHDFNVISLLNMQKTWFIKRFTSGKPGFINCMNAATQNVDETAILEIIELGSNN
# Legend:
# Test in all cases: glycan array binding signal (z-score within array); higher = stronger binding
# Conditions in all cases: glycan notation: IUPAC condensed, linker removed
# Neu5Ac(a2-8)Neu5Ac = target: Neu5Ac(a2-8)Neu5Ac
# Procedure, shortened: (§1)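 The Consortium for Functional Glycomics database supplied 3228 glycan arrays, of which those lacking an available protein sequence were dropped. The binding signal, a within-array Z-score, was averaged across arrays of the same protein sequence and across linkers. Negative scores can be read as non-binding.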
# [1] = target: Neu5Ac(a2-8)Neu5Ac(a2-3)Gal(b1-3)GalNAc(b1-4)[Neu5Ac(a2-3)]Gal(b1-4)Glc
# Procedure, shortened: as §1
# [2] = target: Neu5Ac(a2-8)Neu5Ac(a2-3)Gal(b1-3)GalNAc(b1-4)[Neu5Ac(a2-8)Neu5Ac(a2-3)]Gal(b1-4)Glc
# Procedure, shortened: as §1
# [3] = target: Neu5Ac(a2-8)Neu5Ac(a2-3)Gal(b1-4)Glc
# Procedure, shortened: as §1
# [4] = target: Neu5Ac(a2-8)Neu5Ac(a2-3)Gal(b1-4)GlcNAc
# Procedure, shortened: as §1
# [5] = target: Neu5Ac(a2-8)Neu5Ac(a2-3)[Gal(b1-3)GalNAc(b1-4)]Gal(b1-4)Glc
# Procedure, shortened: as §1
# [6] = target: Neu5Ac(a2-8)Neu5Ac(a2-3)[GalNAc(b1-4)]Gal(b1-4)Glc
# Procedure, shortened: as §1
# [7] = target: Neu5Ac(a2-8)Neu5Ac(a2-8)Neu5Ac
# Procedure, shortened: as §1
# [8] = target: Neu5Ac(a2-8)Neu5Ac(a2-8)Neu5Ac(a2-3)Gal(b1-4)Glc
# Procedure, shortened: as §1
# [9] = target: Neu5Ac(a2-8)Neu5Ac(a2-8)Neu5Ac(a2-3)[Gal(b1-3)GalNAc(b1-4)]Gal(b1-4)Glc
# Procedure, shortened: as §1
# [10] = target: Neu5Ac(a2-8)Neu5Ac(a2-8)Neu5Ac(a2-3)[GalNAc(b1-4)]Gal(b1-4)Glc
# Procedure, shortened: as §1
# [11] = target: Neu5Ac(a2-8)Neu5Ac(a2-8)Neu5Ac(a2-8)Neu5Ac(a2-3)[GalNAc(b1-4)]Gal(b1-4)Glc
# Procedure, shortened: as §1
# [12] = target: Neu5Ac(a2-8)Neu5Gc(a2-3)Gal(b1-4)GlcNAc
# Procedure, shortened: as §1
# [13] = target: Neu5Ac(b2-6)Gal(b1-4)GlcNAc
# Procedure, shortened: as §1
# Neu5Ac(b2-6)GalNAc = target: Neu5Ac(b2-6)GalNAc
# Procedure, shortened: as §1
# [14] = target: Neu5Ac9Ac(a2-3)Gal(b1-3)GlcNAc
# Procedure, shortened: as §1
# [15] = target: Neu5Ac9Ac(a2-3)Gal(b1-4)GlcNAc
# Procedure, shortened: as §1
# [16] = target: Neu5Ac9Ac(a2-6)Gal(b1-4)GlcNAc
# Procedure, shortened: as §1
# [17] = target: Neu5Gc(a2-3)Gal(b1-3)GlcNAc
# Procedure, shortened: as §1
# [18] = target: Neu5Gc(a2-3)Gal(b1-3)[Fuc(a1-4)]GlcNAc
# Procedure, shortened: as §1
# Neu5Gc(a2-3)Gal(b1-4)Glc = target: Neu5Gc(a2-3)Gal(b1-4)Glc
# Procedure, shortened: as §1
# [19] = target: Neu5Gc(a2-3)Gal(b1-4)GlcNAc
# Procedure, shortened: as §1
# [20] = target: Neu5Gc(a2-3)Gal(b1-4)GlcNAc(b1-3)Gal(b1-4)GlcNAc(b1-2)Man(a1-3)[Neu5Gc(a2-3)Gal(b1-4)GlcNAc(b1-3)Gal(b1-4)GlcNAc(b1-2)Man(a1-6)]Man(b1-4)GlcNAc(b1-4)GlcNAc
# Procedure, shortened: as §1
# [21] = target: Neu5Gc(a2-3)Gal(b1-4)[Fuc(a1-3)]GlcNAc
# Procedure, shortened: as §1
# [22] = target: Neu5Gc(a2-6)Gal(b1-4)GlcNAc
# Procedure, shortened: as §1
# Neu5Gc(a2-6)GalNAc = target: Neu5Gc(a2-6)GalNAc
# Procedure, shortened: as §1
# [23] = target: Neu5Gc(a2-8)Neu5Ac(a2-3)Gal(b1-4)GlcNAc
# Procedure, shortened: as §1
# [24] = target: Neu5Gc(a2-8)Neu5Gc(a2-3)Gal(b1-4)GlcNAc
# Procedure, shortened: as §1
# [25] = target: Neu5Gc(a2-8)Neu5Gc(a2-3)Gal(b1-4)GlcNAc(b1-3)Gal(b1-4)GlcNAc
# Procedure, shortened: as §1
# [26] = target: Neu5Gc(a2-8)Neu5Gc(a2-6)Gal(b1-4)GlcNAc
# Procedure, shortened: as §1
# [27] = target: Neu5Gc(b2-6)Gal(b1-4)GlcNAc
# Procedure, shortened: as §1
binder,measurement,setting,value
B1,glycan array binding signal (z-score),Neu5Ac(a2-8)Neu5Ac,-0.269
same,glycan array binding signal (z-score),[1],-0.178
same,glycan array binding signal (z-score),[2],-0.11
same,glycan array binding signal (z-score),[3],-0.424
same,glycan array binding signal (z-score),[4],-0.566
same,glycan array binding signal (z-score),[5],-0.248
same,glycan array binding signal (z-score),[6],0.187
same,glycan array binding signal (z-score),[7],-0.308
same,glycan array binding signal (z-score),[8],-0.123
same,glycan array binding signal (z-score),[9],0.073
same,glycan array binding signal (z-score),[10],0.252
same,glycan array binding signal (z-score),[11],-0.441
same,glycan array binding signal (z-score),[12],-0.121
same,glycan array binding signal (z-score),[13],-0.293
same,glycan array binding signal (z-score),Neu5Ac(b2-6)GalNAc,-0.383
same,glycan array binding signal (z-score),[14],0.099
same,glycan array binding signal (z-score),[15],0.631
same,glycan array binding signal (z-score),[16],-0.487
same,glycan array binding signal (z-score),[17],-0.28
same,glycan array binding signal (z-score),[18],-0.191
same,glycan array binding signal (z-score),Neu5Gc(a2-3)Gal(b1-4)Glc,0.099
same,glycan array binding signal (z-score),[19],-0.2
same,glycan array binding signal (z-score),[20],1.25
same,glycan array binding signal (z-score),[21],-0.167
same,glycan array binding signal (z-score),[22],-0.372
same,glycan array binding signal (z-score),Neu5Gc(a2-6)GalNAc,-0.314
same,glycan array binding signal (z-score),[23],-0.487
same,glycan array binding signal (z-score),[24],-0.362
same,glycan array binding signal (z-score),[25],-0.414
same,glycan array binding signal (z-score),[26],0.076
same,glycan array binding signal (z-score),[27],-0.443
